# The supplement of paper PMC8728848
# This is one part of the list.
# B1: DC-ASGPR-short (Homo sapiens) (protein)
# chain: MTRTYENFQYLENKVKVQGFKNGPLPLQSLLQRLRSGPCHLLLSLGLGLLLLVIICVVGFQNSKFQRDLVTLRTDFSNFTSNTVAEIQALTSQGSSLEETIASLKAEVEGFKQERQAVHSEMLLRVQQLVQDLKKLTCQVATLNNNASTEGTCCPVNWVEHQDSCYWFSHSGMSWAEAEKYCQLKNAHLVVINSREEQNFVQKYLGSAYTWMGLSDPEGAWKWVDGTDYATGFQNWKPGQPDDWQGHGLGGGEDCAHFHPDGRWNDDVCQRPYHWVCEAGLGQTSQESH
# Columns and labels:
# Assay in all cases: glycan array binding signal (z-score within array); higher = stronger binding
# Settings in all cases: glycan notation: IUPAC condensed, linker removed
# [1] = molecular target: Fuc(a1-2)[Gal(a1-3)]Gal(b1-4)GlcNAc(b1-2)Man(a1-3)[Fuc(a1-2)[Gal(a1-3)]Gal(b1-4)GlcNAc(b1-2)Man(a1-6)]Man(b1-4)GlcNAc(b1-4)GlcNAc
# Procedure, shortened: (§1)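 The binding signal is a Z-score computed within each array and averaged over linkers. Arrays of the same protein sequence at different concentrations or buffers were also averaged together. Data originate from 3228 arrays in the Consortium for Functional Glycomics database, kept only where the protein sequence was available.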
# [2] = molecular target: Fuc(a1-2)[Gal(a1-3)]Gal(b1-4)GlcNAc(b1-2)Man(a1-3)[Fuc(a1-2)[Gal(a1-3)]Gal(b1-4)GlcNAc(b1-2)Man(a1-6)]Man(b1-4)GlcNAc(b1-4)[Fuc(a1-6)]GlcNAc
# Procedure, shortened: as §1
# [3] = molecular target: Fuc(a1-2)[Gal(a1-3)]Gal(b1-4)GlcNAc(b1-3)GalNAc
# Procedure, shortened: as §1
# [4] = molecular target: Fuc(a1-2)[Gal(a1-3)]Gal(b1-4)GlcNAc(b1-3)[Fuc(a1-2)[Gal(a1-3)]Gal(b1-4)GlcNAc(b1-6)]GalNAc
# Procedure, shortened: as §1
# [5] = molecular target: Fuc(a1-2)[Gal(a1-3)]Gal(b1-4)GlcNAc(b1-6)GalNAc
# Procedure, shortened: as §1
# [6] = molecular target: Fuc(a1-2)[Gal(a1-3)]Gal(b1-4)[Fuc(a1-3)]Glc
# Procedure, shortened: as §1
# [7] = molecular target: Fuc(a1-2)[Gal(a1-3)]Gal(b1-4)[Fuc(a1-3)]GlcNAc
# Procedure, shortened: as §1
# [8] = molecular target: Fuc(a1-2)[Gal(a1-3)]Gal(b1-4)[Fuc(a1-3)]GlcNAc(b1-3)GalNAc
# Procedure, shortened: as §1
# [9] = molecular target: Fuc(a1-2)[Gal(a1-4)]Gal(b1-4)GlcNAc
# Procedure, shortened: as §1
# [10] = molecular target: Fuc(a1-2)[GalNAc(a1-3)]Gal
# Procedure, shortened: as §1
# [11] = molecular target: Fuc(a1-2)[GalNAc(a1-3)]Gal(b1-3)GalNAc(a1-3)[Fuc(a1-2)]Gal(b1-4)GlcNAc
# Procedure, shortened: as §1
# [12] = molecular target: Fuc(a1-2)[GalNAc(a1-3)]Gal(b1-3)GalNAc(b1-3)Gal(a1-4)Gal(b1-4)Glc
# Procedure, shortened: as §1
# [13] = molecular target: Fuc(a1-2)[GalNAc(a1-3)]Gal(b1-3)GlcNAc
# Procedure, shortened: as §1
# [14] = molecular target: Fuc(a1-2)[GalNAc(a1-3)]Gal(b1-3)GlcNAc(b1-2)Man(a1-3)[Fuc(a1-2)[GalNAc(a1-3)]Gal(b1-3)GlcNAc(b1-2)Man(a1-6)]Man(b1-4)GlcNAc(b1-4)GlcNAc
# Procedure, shortened: as §1
# [15] = molecular target: Fuc(a1-2)[GalNAc(a1-3)]Gal(b1-3)GlcNAc(b1-2)Man(a1-3)[Fuc(a1-2)[GalNAc(a1-3)]Gal(b1-3)GlcNAc(b1-2)Man(a1-6)]Man(b1-4)GlcNAc(b1-4)[Fuc(a1-6)]GlcNAc
# Procedure, shortened: as §1
# [16] = molecular target: Fuc(a1-2)[GalNAc(a1-3)]Gal(b1-3)GlcNAc(b1-3)GalNAc
# Procedure, shortened: as §1
# [17] = molecular target: Fuc(a1-2)[GalNAc(a1-3)]Gal(b1-3)GlcNAc(b1-6)GalNAc
# Procedure, shortened: as §1
# [18] = molecular target: Fuc(a1-2)[GalNAc(a1-3)]Gal(b1-4)Glc
# Procedure, shortened: as §1
# [19] = molecular target: Fuc(a1-2)[GalNAc(a1-3)]Gal(b1-4)GlcNAc
# Procedure, shortened: as §1
# [20] = molecular target: Fuc(a1-2)[GalNAc(a1-3)]Gal(b1-4)GlcNAc(b1-2)Man
# Procedure, shortened: as §1
# [21] = molecular target: Fuc(a1-2)[GalNAc(a1-3)]Gal(b1-4)GlcNAc(b1-2)Man(a1-3)[Fuc(a1-2)[GalNAc(a1-3)]Gal(b1-4)GlcNAc(b1-2)Man(a1-6)]Man(b1-4)GlcNAc(b1-4)GlcNAc
# Procedure, shortened: as §1
# [22] = molecular target: Fuc(a1-2)[GalNAc(a1-3)]Gal(b1-4)GlcNAc(b1-2)Man(a1-3)[Fuc(a1-2)[GalNAc(a1-3)]Gal(b1-4)GlcNAc(b1-2)Man(a1-6)]Man(b1-4)GlcNAc(b1-4)[Fuc(a1-6)]GlcNAc
# Procedure, shortened: as §1
# [23] = molecular target: Fuc(a1-2)[GalNAc(a1-3)]Gal(b1-4)GlcNAc(b1-3)Gal(b1-4)GlcNAc
# Procedure, shortened: as §1
# [24] = molecular target: Fuc(a1-2)[GalNAc(a1-3)]Gal(b1-4)GlcNAc(b1-3)Gal(b1-4)GlcNAc(b1-3)Gal(b1-4)GlcNAc
# Procedure, shortened: as §1
# [25] = molecular target: Fuc(a1-2)[GalNAc(a1-3)]Gal(b1-4)GlcNAc(b1-3)GalNAc
# Procedure, shortened: as §1
# [26] = molecular target: Fuc(a1-2)[GalNAc(a1-3)]Gal(b1-4)GlcNAc(b1-3)[Fuc(a1-2)[GalNAc(a1-3)]Gal(b1-4)GlcNAc(b1-6)]GalNAc
# Procedure, shortened: as §1
# [27] = molecular target: Fuc(a1-2)[GalNAc(a1-3)]Gal(b1-4)GlcNAc(b1-6)GalNAc
# Procedure, shortened: as §1
# [28] = molecular target: Fuc(a1-2)[GalNAc(a1-3)]Gal(b1-4)[Fuc(a1-3)]GlcNAc
# Procedure, shortened: as §1
# [29] = molecular target: Fuc(a1-2)[GalNAc(a1-3)]Gal(b1-4)[Fuc(a1-3)]GlcNAc(b1-3)GalNAc
# Procedure, shortened: as §1
# [30] = molecular target: Fuc(a1-2)[GalNAc(a1-4)]Gal(b1-4)GlcNAc
# Procedure, shortened: as §1
binder,measurement,setting,value
B1,glycan array binding signal (z-score),[1],-0.281
same,glycan array binding signal (z-score),[2],-0.247
same,glycan array binding signal (z-score),[3],-0.27
same,glycan array binding signal (z-score),[4],-0.17
same,glycan array binding signal (z-score),[5],-0.273
same,glycan array binding signal (z-score),[6],-0.277
same,glycan array binding signal (z-score),[7],-0.343
same,glycan array binding signal (z-score),[8],-0.272
same,glycan array binding signal (z-score),[9],-0.263
same,glycan array binding signal (z-score),[10],0.967
same,glycan array binding signal (z-score),[11],1.27
same,glycan array binding signal (z-score),[12],0.766
same,glycan array binding signal (z-score),[13],1.51
same,glycan array binding signal (z-score),[14],1.03
same,glycan array binding signal (z-score),[15],0.267
same,glycan array binding signal (z-score),[16],0.004
same,glycan array binding signal (z-score),[17],1.28
same,glycan array binding signal (z-score),[18],0.364
same,glycan array binding signal (z-score),[19],0.734
same,glycan array binding signal (z-score),[20],1.18
same,glycan array binding signal (z-score),[21],0.493
same,glycan array binding signal (z-score),[22],0.773
same,glycan array binding signal (z-score),[23],0.335
same,glycan array binding signal (z-score),[24],0.555
same,glycan array binding signal (z-score),[25],0.542
same,glycan array binding signal (z-score),[26],1.24
same,glycan array binding signal (z-score),[27],1.62
same,glycan array binding signal (z-score),[28],0.414
same,glycan array binding signal (z-score),[29],-0.16
same,glycan array binding signal (z-score),[30],3.1
